# Among all 150,000 compounds or so, about 540 (0.36%) showed an effect of 50% or more. This is one part of the list.
# Tested on: Plasmodium falciparum
# Assay: Primary screen in NF54 nanoGlo assay, in single point, at 2uM, 72h; a lower Z score goes with more inhibition
# Format: functional, Erythrocyte
# Conditions: timepoint 72 hour
SMILES,% Inhibition,Z score
Cc1ccc(COC2C[C@](OCc3ccc(F)cc3F)(C(=O)NC(C)C)C[C@H]3OC(C)(C)O[C@@H]23)cc1 (stereo partly drawn),-2%,0.4
Cc1cc(NC(=O)[C@H](C)N(C)Cc2cnn(C)c2)on1,-7%,0.89
Cc1n[nH]cc1Nc1nc(C(C)(C)C)ns1,3%,-0.46
Cc1n[nH]c(C)c1CNCc1ccc(-c2ccn(Cc3c(C)noc3C)n2)o1,-19%,2.28
CC1CCCC(NC(=O)CS(=O)(=O)N2CCN(C)CC2)C1C (stereo not drawn),-10%,1.99
O=C(c1cc2ccccc2s1)N1C2CCC1CC(n1ccnn1)C2 (stereo not drawn),-8%,1.24
Cc1ccc(S(=O)(=O)N2CCC3(CC2)NC(=O)c2ccccc2N3)cc1Cl,-8%,0.83
O=C(CCCn1nc(-c2ccccc2)c2ccccc21)N1CCc2ccccc2C1,-5%,0.86
COc1c[nH]c(C(=O)N2CCC(F)CC2)cc1=O,-5%,0.59
Oc1ccc2c(c1)Oc1ncn3nc(COc4ccc(Cl)cc4)nc3c1[C@H]2c1ccccc1,-7%,0.73
COc1cc(-c2nc(Cn3ccnc3)no2)cc(OC)c1OC,-3%,0.63
CC(=O)N1CCc2cc(NCc3c[nH]c4ccccc34)ccc21,5%,-0.77
Cc1cc(C)nc(-n2cc(C(=O)N3CCC=C(F)C3)c(C(C)C)n2)n1,-4%,0.86
CC(C)CNC(=O)[C@@H]1CCN(S(C)(=O)=O)c2cc(Cl)ccc2O1,8%,-1.31
COc1cccc(OC[C@@H](O)CNc2nncc(-c3cccc(OC)c3)n2)c1,-3%,0.34
CC(C(=O)NC1CCCCC1)N1CCCC(c2cc(C(N)=O)[nH]n2)C1 (stereo not drawn),-10%,1.4
Cc1ccc(F)cc1C(=O)N1CCC2(CCC(=O)N(C3CC3)C2)CC1,-7%,0.84
O=C1NCCN(Cc2cccc(F)c2F)[C@H]1CC(=O)N1CCC(O)(c2ccccn2)CC1,-15%,1.75
CC(=O)N1C[C@H](O)C[C@@H]1c1nc(-c2cc3ccccc3o2)no1,-2%,0.34
Cn1nc2c(c1CNC(=O)COc1ccc(Cl)cc1)CCC2,15%,-1.95
Cc1c(C(=O)NC2CC2)cnn1-c1cc(-c2nc(C3CC3)no2)ccn1,-20%,3.18

SMILES,% Inhibition,Z score
CC1CN(CCCNC(=O)c2cn[nH]c2)CC(C)O1 (stereo not drawn),-4%,0.78
CCOc1cc(CNc2ncnc3nc[nH]c23)ccn1,-4%,0.64
COc1ccc(CN2CCNC(=O)C23CCCC3)c(F)c1,-12%,1.76
OCc1cn(CCc2ccccn2)nn1,10%,-1.29
O=C(C[C@H]1COc2ccccc2NC1=O)Nc1ccc2c(c1)OCCO2,-6%,0.66
CC(OCC1CCCO1)C(=O)NC1CCc2cn[nH]c2C1 (stereo not drawn),-6%,0.64
Cc1nc(CNC(=O)NCCOc2ccc(F)cc2F)sc1C,-14%,1.46
COCCNC(=O)[C@H](C)N(c1nc(-c2ccc(C)cc2)cs1)c1ccccc1Cl,-15%,2.88
CC(C)NC(=O)C[C@@H]1O[C@H](CNC(=O)Nc2ccccc2)[C@@H](O)[C@H]1O,31%,-3.45
Cc1ccc2c(c1)C1NC(=O)NC(C)(O2)C1C(=O)Nc1ccc(Cl)cc1 (stereo not drawn),36%,-4.11
O=C(C[n+]1cn(NCc2ccco2)cn1)c1ccc(-c2ccccc2)cc1,-10%,1.89
C#CCC[C@H](O)CNCc1cccc(Br)c1,-7%,0.98
Cc1ccc(NC(=O)CC(C)(C)CC(=O)O)cc1,0%,-0.02
COCc1cccc(CC(=O)NCc2c[nH]c(=O)[nH]2)c1,-12%,2.01
CCCOc1nccnc1NC1CCN(C(=O)c2cccs2)CC1,2%,-0.35
Cn1ncc(C2CCC2)c1C(=O)NCCc1ncn[nH]1,4%,-0.57
COc1ccccc1CNC(=O)Cn1nc(C(=O)N2CCOCC2)cc1C,0%,0.03
CO[C@H]1CCN(C(=O)Cc2coc(-c3ccc(F)cc3)n2)CC1(C)C,-11%,1.46
O=C1NCC2(CCN(Cc3c[nH]cn3)CC2)Oc2ccccc21,-5%,0.85
CN(Cc1ccccc1)c1nc2c(c(Oc3cccc(F)c3)n1)CN(C(=O)c1ccc(F)cc1F)CC2,0%,0.05
NS(=O)(=O)c1cccc(NC(=O)CCCCc2nc3ccccc3s2)c1,-21%,3.03

SMILES,% Inhibition,Z score
CC(=O)N[C@H]1C[C@@H](c2cc(C)c(C)cc2C)O[C@@H](c2cccc(O)c2)C1,-7%,1.12
Cc1c(NC(=O)N2CCCCC2)c(=O)n(-c2ccccc2)n1C,-8%,1.45
O=C(N[C@H]1CCc2cn[nH]c2C1)N1CCC(Cc2ccccc2)CC1,-2%,0.33
C[C@@H](c1ccccn1)N(C)CC(C)(CO)CO,-11%,1.71
CC(C)NC(=O)N1CCN(c2cccc(C(F)(F)F)c2)C(=O)[C@@H]1C,1%,-0.25
COC(=O)c1ncccc1NC(=O)Cc1noc2ccccc12,-6%,0.75
FC(F)(F)CCc1noc([C@H]2CCc3nnc(-c4ccccc4)n3C2)n1,-1%,0.13
COc1c(C)cc(-c2ccc[nH]c2=O)cc1C,6%,-0.95
c1cc2c(cc1CNCc1ccc3c(c1)OCO3)OCO2,-3%,0.3
Cn1c(=O)[nH]c(=O)c2cc(S(=O)(=O)NC3CCCCC3)cnc21,10%,-1.61
O=C1NC(=O)C2(CCN(C(=O)[C@@H]3Cc4cc(Cl)ccc4O3)CC2)N1,2%,-0.31
Cc1cc2ncc(NC(=O)c3cccc(C(F)(F)F)c3)cn2n1,-18%,2.29
CCOC1CC(O)(CNC(=O)c2cccc(=O)[nH]2)C1(C)C (stereo not drawn),-4%,0.64
COCCCN(C(=O)c1ccc(NC(C)=O)cc1)C1(C(=O)NCc2ccccc2)CCN(C(C)=O)CC1,0%,-0.07
CNC(=O)c1nc(-c2cccc(OC)c2OC)n[nH]1,-18%,1.58
c1cc(-c2noc([C@H]3CNCC34CCCCC4)n2)co1,-7%,1.36
COCCNC(=O)c1cn(C)c2c(c(C)nn2-c2ccc(F)cc2)c1=O,-1%,0.1
O=C(N[C@H]1CCOC[C@@H]1O)c1ccncc1F,-9%,0.99
Cc1ccc(-c2ccc(C(=O)NCCCc3nnn[nH]3)cc2)o1,-8%,0.79
CCc1ccc(C(=O)NC[C@]2(c3ccccc3)CCCOCC2)cc1,-1%,0.26
COc1ccc(C)c2sc(N(CCCn3ccnc3)C(=O)Cc3ccc(F)cc3)nc12,78%,-7.85

SMILES,% Inhibition,Z score
COc1ccc(Oc2c(CN(CC3CC3)C(=O)C3CCCC3)c(-c3ccccc3)nn2C)cc1,3%,-0.32
COc1ccc(CN(Cc2nnn(C)n2)C2CCCCC2)cc1OC,-7%,1.05
Cc1nnc(CN(C)C(=O)N[C@H]2CCc3c2ccc(Cl)c3Cl)s1,-4%,0.8
Cc1noc(COC2CN(C(=O)NCc3ccc4[nH]c(C)c(C)c4c3)C2)n1,-16%,2.33
CC#CC(=O)N1CCC2(CC1)c1ccccc1[C@@H](NC(=O)CC)[C@@H]2OCc1cccnc1,-1%,0.21
CCOC(=O)c1ncn(C2CCCCC2)c1N,37%,-4.22
CC1CCN(C(=O)CCC(N)c2ccccc2)C1C (stereo not drawn),-13%,1.28
C[C@@H]1CN(CCCNc2ccncn2)C[C@H](C)O1,-5%,0.8
Cc1ncc(S(=O)(=O)N2C[C@@H](C(C)(C)C)c3ccccc32)s1,25%,-3.27
C[C@@H](C1CCN(C)CC1)N(C)S(=O)(=O)c1ccc(Cl)s1,-3%,0.24
Cn1ccnc1[C@@]1(CNC(=O)c2ccc(C(F)(F)F)cc2)NC(=O)NC1=O,-18%,1.97
COC(=O)NCC(=O)N(Cc1cc(F)ccc1F)C1CCCC1,13%,-1.42
O=C(N[C@H]1CCCc2ccccc21)c1ccccc1OCc1ccccc1,-6%,0.94
CCc1noc(C)c1CNC(=O)c1cc(=O)[nH]c2ncn(C)c12,-6%,0.68
CCNC(=O)COc1c(Br)cccc1OC,-16%,2.99
CCCC(O)(CCC)CC(=O)NCc1ccc2c(=O)cc[nH]c2c1,-8%,1.43
Cc1cc(Br)ccc1N(C)C(=O)c1ccn(C)c(=O)c1,-12%,1.33
Cc1c(Cl)cccc1S(=O)(=O)Nc1cnc(N(C)C)c(C(=O)O)c1,-3%,0.25
Cc1ccc(NC(=O)N2CCCN(C3=Nc4ccc(C(F)(F)F)cc4Oc4ccccc43)CC2)cc1,-9%,1.43
CCOc1cc(CNCCCOC)cc(Cl)c1OC,-9%,1.33
Cc1csc([C@@H](NC(=O)COc2cc(C)on2)C(F)(F)F)n1,-6%,1.08

# Reference: ChEMBL document CHEMBL4888484, “Replenishing the malaria drug discovery pipeline: Screening and hit evaluation of the MMV Hit Generation Library 1 (HGL1) against asexual blood stage Plasmodium falciparum ,using a nano luciferase reporter read-out” (2022)
